Data published in PubChem BioAssay AID485294 (National Center for Advancing Translational Sciences (NCATS), 2010).
Screen size: about 370,000 compounds; about 150 (0.041%) were called active. The inconclusive results got no clear call from the source; some entries with a clear call stand among them for comparison. The call rests on the fitted dose curve; in most records, active means well fitted inhibition curve with a large enough effect; inconclusive means small, poorly fitted or top-dose-only effect; inactive means flat fitted curve, though single readings scatter. No potency is given beside an inconclusive call; the fits are too rough. Peptide text beside a SMILES is read from it. * marks the point of attachment. Boc = CC(C)(C)OC(=O)*

biological target: Beta-lactamase (Escherichia coli (strain K12)) (UniProt P00811); experiment: qHTS Inhibitors of AmpC Beta-Lactamase (assay with detergent); conditions: AmpC hydrolysis of nitrocefin, absorbance 480 nm, 0.01% Triton; activity change, negative = inhibition: at 114 µM (top of the series); further: nearly all actives have a fitted effect of over 25% in size;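 on activity change, negative = inhibition: 0% = no-compound wells and -100% = no-enzyme wells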
UniProt P00811, sequence (P00811 whole entry, looked up): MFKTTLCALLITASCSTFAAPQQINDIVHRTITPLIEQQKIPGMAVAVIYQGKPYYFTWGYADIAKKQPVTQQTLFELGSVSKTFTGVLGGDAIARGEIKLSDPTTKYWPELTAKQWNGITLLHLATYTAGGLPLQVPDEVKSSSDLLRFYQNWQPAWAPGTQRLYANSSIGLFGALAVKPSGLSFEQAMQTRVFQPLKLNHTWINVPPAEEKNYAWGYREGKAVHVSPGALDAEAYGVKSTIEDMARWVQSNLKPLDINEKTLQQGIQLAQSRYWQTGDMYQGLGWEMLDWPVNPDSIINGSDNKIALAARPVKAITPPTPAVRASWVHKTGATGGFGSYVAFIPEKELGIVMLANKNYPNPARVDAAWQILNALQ
Outline: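 20 mM phosphate pH 7.0 + 0.01% (detergent screen) or 0.0001% Triton X-100; 5.3 nM AmpC reagent; cpd preinc 15 min RT; nitrocefin (800 uM stock) to start; A480 q20 s × 4 min; Activity was normalised to no-enzyme and no-compound control wells.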
Potency means the concentration at half of the fitted maximal effect; tags describe the fitted curve by direction and shape.

How did the “activity change, negative = inhibition” value turn out when `O=[N+]([O-])c1c(NCCCO)cc(N2CCCCCC2)c2nonc12` was run?
The value was inactive: 5.03%.

`CCN(CC)CC(C)CNC(=O)CN1C(=O)CSc2ccc(S(=O)(=O)N3CCOCC3)cc21` (stereo unspecified) was tested. Which Potency did it give?
The Potency was inconclusive [inhibitor, full curve, poor fit].

`COC(=O)C(Cc1ccccc1)NC(=O)C(CC(C)C)NC(=O)OC(C)(C)C` (stereo not drawn) (Boc-Leu-Phe-OMe; configuration not given here) was tested. Which Potency did it give?
The Potency was inconclusive [inhibitor, full curve].

For `COc1ccccc1CNS(=O)(=O)c1ccc2c(c1)NC(=O)C(C)S2` (stereo unspecified), which Potency is on record?
Its Potency is inconclusive [inhibitor, full curve, poor fit].

For `Cc1cc(C(=O)C(C)OC(=O)C2=NNC(=O)CC2)c(C)n1-c1ccc(OC(F)F)cc1` (stereo unspecified), which Potency is on record?
Its Potency is inconclusive [inhibitor, partial curve, poor fit].

For `Cc1cc(C)nc(NC2=NCC(=O)N2c2ccccc2)n1`, which Potency is on record?
The Potency was inconclusive [inhibitor, single point].

`Cc1ccc(C(=O)N2CCC(C)CC2)cc1C` was tested. Which Potency did it give?
Its Potency is inconclusive [inhibitor, partial curve, poor fit].

With `Cc1c(NC(=O)Cc2ccccc2)cccc1C(=O)NN1C(=O)c2ccccc2C1=O` as the molecule, how does the Potency read?
Its Potency is inconclusive [inhibitor, full curve, poor fit].

How did the Potency turn out when `O=C(O)C1CCCCC1C(=O)Nc1cccc(Cl)c1Cl` (stereo unspecified) was run?
The Potency was inconclusive [inhibitor, partial curve, poor fit].

How did the Potency turn out when `CCN(C(=O)c1cc2ccccc2oc1=O)c1ccccc1` was run?
Its Potency is inconclusive [inhibitor, full curve, poor fit].

Which “activity change, negative = inhibition” value does the source give for `Cc1ccc(C(=O)CSc2nnc3ccccn23)c(C)c1` here?
The value was inactive: 5.24%.

How did the Potency turn out when `CCOc1ccc(C(C)(N)C(=O)O)cc1` (stereo unspecified) was run?
Its Potency is inconclusive [inhibitor, full curve].

With `C=CCn1c(N)c(C(=O)OCCC)c2nc3ccccc3nc21` as the molecule, how does the Potency read?
The Potency was inconclusive [inhibitor, full curve, poor fit].

With `CCOC(=O)N1CCN=C1SCc1ccc(C(F)(F)F)cc1` as the molecule, how does the Potency read?
The Potency was inconclusive [inhibitor, partial curve, poor fit].

With `Cc1csc(NC(=O)C2CCN(S(=O)(=O)c3cccs3)CC2)n1` as the molecule, how does the “activity change, negative = inhibition” value read?
Its value is inactive: -11.6%.

For `Cc1cc(C)n(-c2ccc(C(=O)Nc3cccc([N+](=O)[O-])c3)cc2)n1`, which “activity change, negative = inhibition” value is on record?
Its value is inactive: 2.92%.

How did the Potency turn out when `O=C(c1ccc(Cl)cc1)c1cnc2ccccn12` was run?
The Potency was inconclusive [inhibitor, full curve, poor fit].

Which Potency does the source give for `O=C(Nc1ccccc1N1CCCC1)c1cc2ccccc2o1` here?
The Potency was inconclusive [inhibitor, single point].

For `CC(C)c1ccc(NC2CCCN(C(=O)CCc3cnn(C)c3)C2)cc1` (stereo unspecified), which “activity change, negative = inhibition” value is on record?
The value was inactive: 3.98%.

For `CC(C)C(NC(=O)C1CCCCC1)C(=O)Nc1ccc2c(c1)OCCO2` (stereo unspecified), which “activity change, negative = inhibition” value is on record?
Its value is inactive: 7.19%.

How did the “activity change, negative = inhibition” value turn out when `Cc1cc(OCC(=O)Nc2ccc(-c3nc4cc(Cl)ccc4o3)cc2)cc(C)c1Cl` was run?
The value was inactive: -8.76%.

`C=CCN1C(=NC(=O)CCC(=O)O)SC2CS(=O)(=O)CC21` (stereo unspecified) was tested. Which Potency did it give?
The Potency was inconclusive [inhibitor, single point].

For `Cn1c(=O)c(NCCO)c2c3c(cccc31)C(=O)c1ccccc1-2`, which “activity change, negative = inhibition” value is on record?
Its value is inactive: -0.739%.

Which Potency does the source give for `CSCCC(NS(=O)(=O)c1ccccc1F)C(=O)Nc1ccncc1` (stereo unspecified) here?
Its Potency is inconclusive [inhibitor, single point].

With `Cn1nc(-c2ccccc2)cc1NC(=O)c1ccc(Cl)cc1` as the molecule, how does the Potency read?
Its Potency is inconclusive [inhibitor, partial curve, poor fit].

`COCCN(C(=O)Nc1ccccc1)c1ccccc1C` was tested. Which Potency did it give?
The Potency was inconclusive [inhibitor, full curve, poor fit].

Which “activity change, negative = inhibition” value does the source give for `Cc1noc(NS(=O)(=O)c2ccc(N/C=C/C(=O)c3cccnc3)cc2)c1C` here?
Its value is inactive: 1.31%.

Which Potency does the source give for `Cc1cc(C(=O)COC(=O)C2CC2)c(C)n1-c1ccc(F)cc1` here?
Its Potency is inconclusive [inhibitor, full curve, poor fit].

With `COc1ccc(NC(=O)C(NS(=O)(=O)c2ccc3c(c2)CCCC(=O)N3)C(C)C)c(OC)c1` (stereo unspecified) as the molecule, how does the “activity change, negative = inhibition” value read?
Its value is inactive: 2.87%.

Which Potency does the source give for `COc1ccc(N(CC(=O)NC2CCCC2)C(=O)Cn2nnc(-c3ccc(F)cc3)n2)cc1OC` here?
Its Potency is inconclusive [inhibitor, partial curve, poor fit].

How did the Potency turn out when `COc1ccc(-c2noc(N3CCC(C(=O)NC(C)c4ccccc4)CC3)n2)cc1` (stereo unspecified) was run?
Its Potency is inconclusive [inhibitor, full curve].

`CCc1cc2c(NCC(=O)O)ncnc2s1` was tested. Which Potency did it give?
Its Potency is inconclusive [inhibitor, full curve, poor fit].

For `COc1cc(NC(=O)CCn2c(-c3ccccc3)cc(C(C)=O)c2C)cc(OC)c1`, which “activity change, negative = inhibition” value is on record?
The value was inactive: -0.238%.

`CCOC(=O)c1c(NC(=O)CSc2nccn2C)sc(C(=O)NC)c1C` was tested. Which Potency did it give?
Its Potency is inconclusive [inhibitor, full curve, poor fit].

Which Potency does the source give for `CCN1CCN(c2ccc([N+](=O)[O-])cc2C=C2C(=O)NC(=O)NC2=O)CC1` here?
The Potency was inconclusive [inhibitor, partial curve].

Which Potency does the source give for `CCCc1nc2n[nH]c(N)c2c2c1COC(C)(C)C2` here?
Its Potency is inconclusive [inhibitor, full curve, poor fit].

For `CCn1c(=O)c(CCC(=O)NCC2CCCO2)c(C)c2c(C)nn(-c3ccccc3)c21` (stereo unspecified), which “activity change, negative = inhibition” value is on record?
The value was inactive: -0.382%.

`Cc1cccc(NC(=O)C2C3C=CC(O3)C2C(=O)O)c1` (stereo unspecified) was tested. Which “activity change, negative = inhibition” value did it give?
The value was inactive: -5.34%.

How did the “activity change, negative = inhibition” value turn out when `O=C(c1ccccc1F)N1CCN(c2ccc([N+](=O)[O-])c(NCc3cccnc3)c2)CC1` was run?
Its value is inactive: 2.52%.

Which Potency does the source give for `O=Cc1c(NCc2cccc(F)c2)c2ccccc2[nH]c1=O` here?
Its Potency is inconclusive [inhibitor, full curve, poor fit].

`C[C@@H]1NC(=O)N(CCCn2ccnc2)C1=O` was tested. Which Potency did it give?
The Potency was inconclusive [inhibitor, full curve, poor fit].

How did the Potency turn out when `CCNC(=S)N(Cc1ccc2c(c1)OCO2)C1CC(=O)N(c2ccc(OC)cc2)C1=O` (stereo unspecified) was run?
Its Potency is inconclusive [inhibitor, full curve].

Which Potency does the source give for `CCC(=O)NC(=S)Nc1ccc(Cl)cn1` here?
Its Potency is inconclusive [inhibitor, full curve, poor fit].

How did the Potency turn out when `CCOc1ccc(S(=O)(=O)NCCC(=O)N2CCN(c3ncccn3)CC2)cc1` was run?
The Potency was inconclusive [inhibitor, full curve, poor fit].

How did the Potency turn out when `Cc1nn(-c2ccccc2)c2sc(-c3nnc(SCC(=O)O)o3)cc12` was run?
The Potency was inconclusive [inhibitor, full curve, poor fit].

How did the “activity change, negative = inhibition” value turn out when `Cc1ncoc1C(=O)N1CCc2c([nH]c3ccccc23)C1C1CCCCC1` (stereo unspecified) was run?
The value was inactive: -3.77%.

How did the Potency turn out when `Cc1c2ccccc2nc2c(F)c(N(C)C)c(F)c(F)c12` was run?
The Potency was inconclusive [inhibitor, partial curve, poor fit].

With `Cn1c(=O)c2c(nc(NCc3ccccc3)n2CC(N)=O)n(C)c1=O` as the molecule, how does the Potency read?
Its Potency is inconclusive [inhibitor, partial curve].

With `CC(C)CCNC(=O)c1ccc(Cl)c(NC(=O)Cc2ccccc2)c1` as the molecule, how does the Potency read?
The Potency was inconclusive [inhibitor, full curve, poor fit].

With `Cc1c(C(c2ccc(C(=O)O)cc2)c2c(C)n(C)n(-c3ccccc3)c2=O)c(=O)n(-c2ccccc2)n1C` as the molecule, how does the Potency read?
Its Potency is inconclusive [inhibitor, full curve, poor fit].

`O=C(O)c1cccc(N=C2NC(=O)C(CO)(CO)S2)c1` was tested. Which Potency did it give?
The Potency was inconclusive [inhibitor, full curve, poor fit].

How did the Potency turn out when `COc1ccc(N2C(=O)CC(N3CCOCC3)C2=O)cc1` (stereo unspecified) was run?
Its Potency is inconclusive [inhibitor, full curve, poor fit].

For `CC1CN(CCOc2cccc(Oc3ccccc3)c2)CC(C)O1` (stereo unspecified), which “activity change, negative = inhibition” value is on record?
Its value is inactive: -15.6%.

With `COc1ccc(C(C(=O)NCC2CCCO2)N(C(=O)CNC(=O)c2ccco2)c2cc(C)ccc2C)cc1OC` (stereo unspecified) as the molecule, how does the Potency read?
The Potency was inconclusive [inhibitor, single point].

`O=C(COC(=O)CN1C(=O)c2ccccc2C1=O)Nc1ncc(Cl)cc1Cl` was tested. Which Potency did it give?
Its Potency is inconclusive [inhibitor, partial curve, poor fit].

With `CCC(C(=O)Nc1ccc(C(=O)OC)cc1)n1c(=O)c(-c2ccccc2NC(C)=O)nc2ccccc21` (stereo unspecified) as the molecule, how does the “activity change, negative = inhibition” value read?
The value was inactive: -6.2%.

Which Potency does the source give for `CC1CCc2c(sc3ncnc(SC(C)C(=O)NCC4CCCO4)c23)C1` (stereo unspecified) here?
Its Potency is inconclusive [inhibitor, full curve, poor fit].

With `CC(C)c1c(C(=O)N/N=C/c2ccc(C(F)(F)F)cc2)nnn1-c1nonc1N` as the molecule, how does the Potency read?
The Potency was inconclusive [inhibitor, partial curve].

`Cc1cc(C)c(NC(=S)NC(=O)c2c(Cl)c(C)nn2C)c([N+](=O)[O-])c1` was tested. Which Potency did it give?
Its Potency is inconclusive [inhibitor, full curve, poor fit].

`O=C(CC1N=C2c3ccccc3N=C(SCc3ccc(Cl)cc3)N2C1=O)NCc1ccco1` (stereo unspecified) was tested. Which “activity change, negative = inhibition” value did it give?
The value was inactive: -15.5%.

How did the Potency turn out when `COc1ccc(S(=O)(=O)NCCc2ccco2)cc1OC` was run?
Its Potency is inconclusive [inhibitor, single point].

For `Cc1ccc(OCc2cc(C(=O)NCCn3cccn3)no2)cc1C`, which Potency is on record?
The Potency was inconclusive [inhibitor, single point].

With `CC(/C=C/C=C/c1ccccc1)=N/NC(=O)CNc1ccc(C)cc1` as the molecule, how does the “activity change, negative = inhibition” value read?
Its value is inactive: -5.81%.

Which “activity change, negative = inhibition” value does the source give for `CCOc1ccc(/C=c2\sc3nc(-c4ccco4)nn3c2=O)cc1OCC` here?
The value was inactive: -4.88%.

For `Cn1cc(Cl)c(-c2n[nH]c(=S)n2C2CCCCC2)n1`, which Potency is on record?
Its Potency is inconclusive [inhibitor, single point].

`COc1cc(NS(=O)(=O)c2ccc(C)cc2)ccc1-n1cnnn1` was tested. Which Potency did it give?
Its Potency is inconclusive [inhibitor, partial curve].
